In this experiment the target is recombinant mature myostatin (human) (UniProt O14793).
UniProt O14793, sequence (O14793 267-375): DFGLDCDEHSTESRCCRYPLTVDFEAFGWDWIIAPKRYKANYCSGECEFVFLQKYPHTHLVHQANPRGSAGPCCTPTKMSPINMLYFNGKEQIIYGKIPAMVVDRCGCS

B1: Myostatin-2xTN8-19 kc peptibody (Fc fusion)
chain: [letters of human IgG1 Fc left out]GSGSATGGSGSTASSGSGSATGQGHCTRWPWMCPPYGSGSATGGSGSTASSGSGSATGQGHCTRWPWMCPPY
For the molecule B1, the IC50 (nM), myostatin-induced luciferase, C2C12 pMARE-luc amounted to 9 nM.
